{"source": "PubChem BioAssay AID493208", "about": "(National Center for Advancing Translational Sciences (NCATS), 2011)", "note": "Among all 44,000 compounds or so, about 340 (0.77%) were called active. Another 5% or so got no clear call; they are omitted. Calls come from the whole dose curve; as a rule, active = well fitted inhibition curve with a large enough effect; inconclusive = small, poorly fitted or top-dose-only effect; inactive = flat fitted curve, though single readings scatter. The list shows a part of the results. Potency is the fitted concentration of half-maximal effect."}
{"test": "Acumen qHTS Assay for Inhibitors of the mTORC1 Signaling Pathway in MEF (Tsc2-/-, p53-/-) Cells: Sytravon; note: nearly all actives have a fitted effect of over 50% in size;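 for activity change, negative = inhibition: plate controls were DMSO for no effect and rapamycin for full effect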", "conditions": "phospho-rpS6 immunofluorescence/PI, 24 h; series mostly up to 38.3 µM; activity change, negative = inhibition: at the top concentration", "outline": "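Read-out: phospho-S6 Alexa-488 intensity over PI intensity per well, scored as % active cells using thresholds from rapamycin (7.5 nM) and DMSO controls. Tsc2-/-, p53-/- MEFs exposed to compound for 24 h; PI cell count recorded as viability.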"}
{"smiles": "COc1ccc(OC)c(NC(=O)CCn2cccn2)c1", "activity change, negative = inhibition": "inactive: -3.95%"}
{"smiles": "Cc1ccc(Cn2ccnc2SCC(=O)Nc2ccccc2C(F)(F)F)cc1", "activity change, negative = inhibition": "inactive: -7.26%"}
{"smiles": "COc1ccccc1CNC(=O)C1CCN(S(=O)(=O)c2ccc3[nH]c(=O)ccc3c2)CC1", "activity change, negative = inhibition": "inactive: -3.63%"}
{"smiles": "CCOc1ccc(NC(=O)Cn2c(=O)n(Cc3ccco3)c(=O)c3ccc(C(=O)NC4CCCC4)cc32)cc1", "activity change, negative = inhibition": "inactive: 0.296%"}
{"smiles": "CCc1nn(CC(=O)N2CCN(c3cccc(Cl)c3)CC2)c(=O)c2cc3sccc3n12", "activity change, negative = inhibition": "inactive: 0.511%"}
{"smiles": "Cc1ccccc1Cn1nc(C)c(NC(=O)c2cc(CC(C)C)on2)c1C", "activity change, negative = inhibition": "inactive: -8.82%"}
{"smiles": "COc1cc(OC)c(NC(=O)Cn2c(SCc3ccccc3F)nc3cccnc32)cc1Cl", "activity change, negative = inhibition": "inactive: -4.82%"}
{"smiles": "O=C1CC(c2cccc(Cl)c2Cl)c2cc3c(cc2N1)OCCO3", "note": "(configuration not stated)", "activity change, negative = inhibition": "inactive: -12.9%"}
{"smiles": "CC(=O)c1ccc(N2CCN(c3nc4ccccc4c4nc(-c5cccc(C)c5)nn34)CC2)cc1", "activity change, negative = inhibition": "inactive: 1.38%"}
{"smiles": "CCOc1ccc(NC(=O)Cn2nc(SC)c(S(=O)(=O)c3ccccc3)c2N)cc1", "activity change, negative = inhibition": "inactive: 10.6%"}
{"smiles": "Cc1ccc(NC(=O)C2CCN(S(=O)(=O)c3ccc4c(c3)CCCN4C(=O)C3CCC3)CC2)cc1", "activity change, negative = inhibition": "inactive: -5.38%"}
{"smiles": "O=C(NCCCN1CCCCC1)c1[nH]c2ccccc2c1Sc1ccc(Cl)cc1", "activity change, negative = inhibition": "inactive: -7.16%"}
{"smiles": "Cc1c(Cl)cccc1-n1ncc(C(=O)N2CCC(C)CC2)c1C1CCN(C(=O)OC(C)(C)C)CC1", "activity change, negative = inhibition": "inactive: 3.17%"}
{"smiles": "Cc1cc(C)nc(NS(=O)(=O)c2ccc(NC(=O)c3nc(SC(C)C)ncc3Cl)cc2)n1", "activity change, negative = inhibition": "inactive: 3.54%"}
{"smiles": "COc1ccc(NC(=O)CSc2nc(-c3ccccc3)[nH]c2-c2ccccc2)cc1OC", "activity change, negative = inhibition": "inactive: 3.24%"}
{"smiles": "CN(C(=O)C1CCN(c2ncnc3c2nc2n3CCCCC2)CC1)c1ccccc1F", "activity change, negative = inhibition": "inactive: -0.505%"}
{"smiles": "CCN(CC)c1ccc(NC(=O)CN2CCN(S(=O)(=O)c3cc(Cl)ccc3OC)CC2)cc1", "activity change, negative = inhibition": "inactive: -16.4%"}
{"smiles": "CC(=O)c1ccc(N2CCN(C(=O)c3cc4c(s3)-c3ccccc3OC4)CC2)cc1", "activity change, negative = inhibition": "inactive: -2.32%"}
{"smiles": "CC(C)C(NS(=O)(=O)c1ccc2c(c1)oc(=O)n2C)C(=O)NCc1ccccc1", "note": "(configuration not stated)", "activity change, negative = inhibition": "inactive: -1.96%"}
{"smiles": "Cc1oc(-c2ccc(C(=O)NCc3ccccc3F)cc2)nc1COc1ccccc1", "activity change, negative = inhibition": "inactive: -3.56%"}
{"smiles": "O=C(Nc1cccc(C(=O)OCc2cc(=O)n3c4c(sc3n2)CCCC4)c1)c1cccc(Cl)c1", "activity change, negative = inhibition": "inactive: 0.0495%"}
{"smiles": "COc1cccc(NC(=O)Cn2nnc(C(=O)NCCc3ccccc3)c2N)c1", "activity change, negative = inhibition": "inactive: 4.26%"}
{"smiles": "Cn1cnc2c(=O)oc3ccc(S(=O)(=O)N4CCN(c5ccccc5F)CC4)cc3c21", "activity change, negative = inhibition": "inactive: -9.7%"}
{"smiles": "Cc1nc(-c2ccc(S(=O)(=O)N(Cc3ccccc3)C(C)C)cc2)co1", "activity change, negative = inhibition": "inactive: -14.5%"}
{"smiles": "COc1ccc(CCn2c(=O)c3cccnc3n(CC(=O)Nc3ccc(C)cc3C)c2=O)cc1OC", "activity change, negative = inhibition": "inactive: -5.13%"}
{"smiles": "Cn1cc(C(=O)Nc2ccc(C#N)cc2)c2ccccc2c1=O", "activity change, negative = inhibition": "inactive: 0.764%"}
{"smiles": "O=C(CSc1nc2c([nH]c3ccccc32)c(=O)n1-c1ccc(F)cc1)NCc1ccc(F)cc1", "activity change, negative = inhibition": "inactive: -0.618%"}
{"smiles": "CCOc1ccc(CCNC(=O)c2ccc3c(c2)nc2n3CCOC2)cc1OCC", "activity change, negative = inhibition": "inactive: 3.56%"}
{"smiles": "CC(C)OCCCNC(=O)CCCn1c(SCC(N)=O)nc2c(sc3ccccc32)c1=O", "activity change, negative = inhibition": "inactive: 0.0888%"}
{"smiles": "Cc1ccc(Cl)cc1NC(=O)C1CCN(C(=O)c2cnn(-c3ccccc3)c2-n2cccc2)CC1", "activity change, negative = inhibition": "inactive: -5.78%"}
{"smiles": "Cc1cc(C)c2c(=O)c3c(oc2c1)C(=O)N(Cc1ccco1)C3c1ccc(F)cc1", "note": "(configuration not stated)", "activity change, negative = inhibition": "inactive: -2.15%"}
{"smiles": "CCN(CC)c1cc(C)c2cc(NC(=O)/C=C/c3ccccc3OC(C)C)ccc2n1", "activity change, negative = inhibition": "inactive: -16.7%"}
{"smiles": "Cc1ccc(Oc2nc3ccccn3c(=O)c2/C=C(\\C#N)c2nc3ccccc3s2)c(C)c1", "activity change, negative = inhibition": "inactive: 6.47%"}
{"smiles": "Cc1nn(C)c2c1c(C(F)(F)F)cc(=O)n2CC(=O)N1CCN(c2ccccc2F)CC1", "activity change, negative = inhibition": "inactive: -13.4%"}
{"smiles": "CC(=O)N1CCc2c(sc3c2c(=O)n(-c2cccc(Cl)c2)c(=O)n3Cc2ccc(F)cc2Cl)C1", "activity change, negative = inhibition": "inactive: -1.2%"}
{"smiles": "CCOC(=O)c1c(NC(=O)/C=C/c2ccc(OCC)cc2)sc2c1CCCC2", "activity change, negative = inhibition": "inactive: -0.587%"}
{"smiles": "O=C(NCc1ccc2c(c1)CCN2C(=O)c1ccc(Cl)cc1)c1ccco1", "activity change, negative = inhibition": "inactive: -4.31%"}
{"smiles": "O=C(Cn1c(=O)n(-c2ccccc2)c(=O)c2c3c(sc21)CCCC3)Nc1ccccc1", "activity change, negative = inhibition": "inactive: -5.74%"}
{"smiles": "Cc1cc(-c2ccc(C)c(S(=O)(=O)N3c4ccccc4CC3C)c2)on1", "note": "(configuration not stated)", "activity change, negative = inhibition": "inactive: 0.826%"}
{"smiles": "O=C(O)CSc1nnc(-c2ccc(O)cc2)o1", "activity change, negative = inhibition": "inactive: 0.307%"}
{"smiles": "CCOC(=O)c1noc2nc(C)n(CC(=O)Nc3ccc(OC)c(Cl)c3)c(=O)c12", "activity change, negative = inhibition": "inactive: -1.4%"}
{"smiles": "Cc1cc(N2CCC(C(=O)Nc3ccc(Cl)cc3)CC2)n2nc(C)c(-c3ccc(Cl)cc3)c2n1", "activity change, negative = inhibition": "inactive: -4.89%"}
{"smiles": "Cc1ccc(CC(=O)Nc2c(C(=O)N3CCN(c4ccccc4)CC3)oc3ccccc23)cc1", "activity change, negative = inhibition": "inactive: 0.734%"}
{"smiles": "CCOC(=O)CSc1nnc2n(-c3ccccc3)c(=O)c3c4c(sc3n12)COC(C(C)C)C4", "note": "(configuration not stated)", "activity change, negative = inhibition": "inactive: -15%"}
{"smiles": "CCCCN(CC)CCNC(=O)C1CCN(c2nnc(C)c3c(C)n(-c4ccc(C)cc4)nc23)CC1", "Potency": "active: 14.7 µM"}
{"smiles": "CCc1c(C)nc2nncn2c1NCc1ccc(OC)cc1", "activity change, negative = inhibition": "inactive: -7.21%"}
{"smiles": "Cc1cc2c(cc3c(=O)n(CC(=O)NCc4ccccc4Br)ncn32)s1", "activity change, negative = inhibition": "inactive: -3.53%"}
